According to a collection of fitness landscapes (doi:10.1016/j.celrep.2020.107928):
In all, about 81,000 sequences were measured (“one-hybrid fitness for binding parS DNA”: median about -0.17, highest 2% from about 0.51 on). The list shows a part of the results.

B1: Caulobacter ParB omega fusion; a variant is named by its letters at X, in order, B8GW30 (parent)
chain: MESVVVGEPGMSEGRRGLGRGLSALLGEVDAAPAQAPGEQLGGSREAPIEILQRNPDQPRRTFREEDLEDLSNSIREKGVLQPILVRPSPDTAGEYQIVAGERAWRAAQRAGLKTVPIMVRELDDLAVLEIGIIENVQRADLNVLEEALSYKVLMEKFERTQENIAQTIGKSXSHVANXMRLLXLPDEVQSYLVSGELTAXHARAIAAAADPVALAKQIIEGGLSVRETEALARKAPNLSAGKSKGGRPPRVKDTDTQALESDLSSVLGLDVSIDHRGSTGTLTITYATLEQLDDLCNRLTRGI

Variants of: B1
Experiment: one-hybrid fitness for binding parS DNA (scaled: cognate 1, non-cognate 0); higher = stronger binding
Conditions: with parS DNA site
Outline: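 In E. coli USO, a HIS3 reporter with its site placed 19 bp from the promoter was used to select Caulobacter ParB variants randomised at four specificity codons. Growth lasted 48 hours at 37°C on histidine-free M9 containing 0.1 mM IPTG and 5 mM 3-AT. Fitness was taken as the log change in variant-to-wild-type read ratio from Illumina sequencing of pre- and post-selection plasmids, rescaled between the non-cognate and cognate sites.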

one-hybrid fitness for binding parS DNA, 0.272:
RKLM

one-hybrid fitness for binding parS DNA, ≤ 0.2:
PSAR
VQHR
LGHI
VNLH
VATV
LQYS
YPKY
DTTE
PQIW
GTPG
YGYI
ESKN
AVHT
KGDK
MSWT
VTRN
WTNR
EEYG
PTSC
RGEI
CPQL
QLSQ
CSNF
TDVL
ERIG
QTAE
RNVF
IMKE
QCPM
PDPW
GVPF
INKK
LQFA
QVWT
CSYT
GYPG
WITS
ACTV
WPWS
PQVF
LTMI
QLLL
MTLN
CQTC
PCAT
RPND
AISY
AWSN
RLPI
STVV
QQME
NYAT
QYQP
HKPL
YREC
RKSP
RSSV
DTKC
QAPH
FVDC
PWCS
HVDS
KANC
VDDG
TGTN
DWTH
PWDC
YYSG
AWRG
RVDR
FPSC
TPHP
AQST
IRRY
VQFT
YMMY
SRKA
FNQG
TENG
FMAT
ANKD
VGPD
FWPA
YSIC
CYML
KPPF
LKMM
NNDY
LNQC
LNTI
MQQC
EVQV
WDTR
GTPF
YYNA
GPYW
DDNC
HFHG
ECRR
HNPG
QLYM
RHEP
QDAI
KRYI
ACLC
WGSR
VQIG
KAML
DVEG
RAWL
RWPQ
FAQC
TQEA
AMVA
AMMW
KGWG
MHDT
FHRA
QLAN
GSSM
FGPD
SGPR
SFLQ
VISL
SHHM
AIIN
LHNL
IDRY
RHPE
GSTE
RQCH
KTLE
GTLR
LPVV
RCWR
REQM
SHFG
KSKN
VADN
TWRI
RCCR
HAFG
LGPE
SYSA
HYAG
EYYS
ESYL
PNSM
VVWR
NAVY
RYRP
RPML
KEST
CVLR
KRWQ
HPGF
NNRT
HKDQ
IAMS
TTPC
QWVL
HLCS
KKKC
KPYS
RRCQ
DLQT
DHAL
ELWS
MVEM
SQII
VYQT
MTVQ
AMVG
HEPC
MAKP
VPQG
QLQG
SLLL
RQLE
SKTS
HPPS
LWQC
IFLG
LWLC
RGVF
HHKS
TRVP
YTVT
LTRA
RDGT
QYAS
QRRD
AHVF
MRRA
TGPW
VYYT
WPAS
PKHG
FLEG
IALM
TRAT
YPQC
TGNC
SQGR
HWAC
ALQT
YALS
LGHF
HYQT
LTLP
RTGE
THVK
DCSR
VSAH
WIPP
TYMW
WRNI
VAEC
MSPA
WRDV
SGVK
PELL
NPYC
RSIR
IMLR
NYPW
GVDL
QHTN
AWRY
HRQV
SGET
YTKG
QTCV
GCAP
KIYR
TVMS
ENLH
MPMT
GWPD
YWTR
GTTM
KGCR
WRPC
FMTE
IRDC
VRIA
LCLK
SCPD
EFLK
YGFF
DVHR
IRAM
LYHS
SSNW
HQGP
REDW
YIMR
CSQA
HYWM
GCQC
IDHT
VDRK
LAGS
DTHI
WRDY
RKSF
NFQE
YLQP
RWVR
PEPI
GRMW
TLIS
RMIQ
RFNR
PHHV
QSEH
FKAG
DKVR
APGC
QCIY
GSKI
HMHD
RSRV
CFMK
GNKA
HIID
EGGI
QTVF
MSFT
VKCI
WANS
HFEE
PQHY

one-hybrid fitness for binding parS DNA, 0.206:
LRTS

one-hybrid fitness for binding parS DNA, 0.459:
RVTY

one-hybrid fitness for binding parS DNA, 0.244:
FGDF

one-hybrid fitness for binding parS DNA, 0.266:
RLSH

one-hybrid fitness for binding parS DNA, 0.73:
RGHS

one-hybrid fitness for binding parS DNA, 0.956:
RARG

one-hybrid fitness for binding parS DNA, 0.441:
RTKN

one-hybrid fitness for binding parS DNA, 0.566:
RTVA

one-hybrid fitness for binding parS DNA, 0.797:
RWNG

one-hybrid fitness for binding parS DNA, 0.715:
RIIT

one-hybrid fitness for binding parS DNA, 0.317:
RTGF

one-hybrid fitness for binding parS DNA, 0.298:
MDMM
